From ChEMBL document CHEMBL3044822, “Carpropamid, a New Fungicide for Rice Blast Control” (1998)
The source made the active and inactive calls. The rule behind the calls is not given here.

Test system: Pyricularia oryzae
Assay: Fungicidal activity against Magnaporthe oryzae assessed as melanin synthesis inhibition

Compound	inhibition
CC(NC(=O)C1(C)C(C)(C)C1(Cl)Cl)c1ccc(Br)cc1 (centres undefined)	Active
CC[C@]1(C(=O)NC(C)c2ccc(Cl)cc2)[C@H](C)C1(Cl)Cl (mixture of isomers)	Active
C[C@@H](NC(=O)C1(C)C(C)(C)C1(Cl)Cl)c1ccc(Br)cc1 (stereo in doubt; 17(Rd))	Active
C[C@@H](NC(=O)C1(C)C(C)(C)C1(Cl)Cl)c1ccc(Br)cc1 (stereo in doubt; 17(Rd+Rl))	Active
C[C@@H](NC(=O)C1(C)C(C)(C)C1(Cl)Cl)c1ccc(Br)cc1 (stereo in doubt; 17(Rl))	Active
C[C@H](NC(=O)C1(C)C(C)(C)C1(Cl)Cl)c1ccc(Br)cc1 (stereo in doubt; 17(Sd))	inactive
C[C@H](NC(=O)C1(C)C(C)(C)C1(Cl)Cl)c1ccc(Br)cc1 (stereo in doubt; 17(Sd+Sl))	inactive
C[C@H](NC(=O)C1(C)C(C)(C)C1(Cl)Cl)c1ccc(Br)cc1 (stereo in doubt; 17(Sl))	inactive
CC[C@]1(C(=O)N[C@H](C)c2ccc(Cl)cc2)[C@H](C)C1(Cl)Cl [trans-Carpropamid]	Active
